Experimental findings from publication PMC10470960 are described below.

These are yes or no findings as the source states them, for the method shown. Some entries that bind do so weakly or less than the wild type. Tags and fused reporters may be left off the sequences shown.

What all share (experiment): two-hybrid; KAR4-GBD alleles with IME4-GAD in PJ69-4 diploids; 24 hours in meiosis-inducing conditions, then 10-fold serial dilutions on SC-HIS and SC-ADE (HIS3 and ADE2 reporters); graded ++++ to -
Assay [1] addresses T1, Kar4p C127Y fused to the Gal4p DNA-binding domain (S. cerevisiae) (UniProt P25583).
T1 sequence: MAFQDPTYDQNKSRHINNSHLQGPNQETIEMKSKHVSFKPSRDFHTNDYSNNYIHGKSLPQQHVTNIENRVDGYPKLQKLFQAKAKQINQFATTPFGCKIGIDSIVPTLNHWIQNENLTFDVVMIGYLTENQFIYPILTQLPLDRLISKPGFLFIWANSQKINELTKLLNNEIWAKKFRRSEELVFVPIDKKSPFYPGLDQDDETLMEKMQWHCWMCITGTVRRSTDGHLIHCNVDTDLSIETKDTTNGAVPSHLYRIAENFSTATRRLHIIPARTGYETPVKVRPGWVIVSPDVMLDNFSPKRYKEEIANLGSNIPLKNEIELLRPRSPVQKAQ

Assay [2] addresses T2, Kar4p E260G fused to the Gal4p DNA-binding domain (S. cerevisiae) (UniProt P25583).
T2 sequence: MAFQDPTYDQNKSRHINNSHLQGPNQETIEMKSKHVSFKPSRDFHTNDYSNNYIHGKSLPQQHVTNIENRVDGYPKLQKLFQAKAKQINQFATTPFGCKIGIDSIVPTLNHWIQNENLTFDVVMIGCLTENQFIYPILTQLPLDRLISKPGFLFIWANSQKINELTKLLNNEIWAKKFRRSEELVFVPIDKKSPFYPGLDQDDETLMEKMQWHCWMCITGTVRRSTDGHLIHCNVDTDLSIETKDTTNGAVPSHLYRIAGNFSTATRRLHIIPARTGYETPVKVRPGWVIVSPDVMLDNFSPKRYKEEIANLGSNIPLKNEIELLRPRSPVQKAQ

Assay [3] concerns the target T3, Kar4p E260K fused to the Gal4p DNA-binding domain (S. cerevisiae) (UniProt P25583).
T3 sequence: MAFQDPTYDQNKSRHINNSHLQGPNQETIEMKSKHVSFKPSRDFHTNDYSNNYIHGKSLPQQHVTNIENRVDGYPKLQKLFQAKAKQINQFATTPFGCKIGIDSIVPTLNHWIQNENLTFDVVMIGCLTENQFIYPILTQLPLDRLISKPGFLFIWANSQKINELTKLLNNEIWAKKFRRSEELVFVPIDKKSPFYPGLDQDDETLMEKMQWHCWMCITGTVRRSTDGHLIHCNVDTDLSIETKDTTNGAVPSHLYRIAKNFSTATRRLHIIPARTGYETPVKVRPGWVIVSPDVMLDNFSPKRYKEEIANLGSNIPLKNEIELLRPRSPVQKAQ

Assay [4] addresses T4, Kar4p F186S fused to the Gal4p DNA-binding domain (S. cerevisiae) (UniProt P25583).
T4 sequence: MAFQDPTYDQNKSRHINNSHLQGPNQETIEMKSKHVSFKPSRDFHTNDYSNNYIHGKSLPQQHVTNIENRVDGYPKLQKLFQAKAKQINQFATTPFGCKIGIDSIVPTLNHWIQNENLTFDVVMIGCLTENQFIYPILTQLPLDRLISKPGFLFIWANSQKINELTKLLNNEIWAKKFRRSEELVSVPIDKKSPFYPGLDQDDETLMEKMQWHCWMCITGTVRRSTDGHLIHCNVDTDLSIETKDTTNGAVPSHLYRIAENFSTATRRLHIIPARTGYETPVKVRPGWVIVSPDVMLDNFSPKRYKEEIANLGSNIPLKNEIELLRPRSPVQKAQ

For assay [5], the target named is T5, Kar4p G287D fused to the Gal4p DNA-binding domain (S. cerevisiae) (UniProt P25583).
T5 sequence: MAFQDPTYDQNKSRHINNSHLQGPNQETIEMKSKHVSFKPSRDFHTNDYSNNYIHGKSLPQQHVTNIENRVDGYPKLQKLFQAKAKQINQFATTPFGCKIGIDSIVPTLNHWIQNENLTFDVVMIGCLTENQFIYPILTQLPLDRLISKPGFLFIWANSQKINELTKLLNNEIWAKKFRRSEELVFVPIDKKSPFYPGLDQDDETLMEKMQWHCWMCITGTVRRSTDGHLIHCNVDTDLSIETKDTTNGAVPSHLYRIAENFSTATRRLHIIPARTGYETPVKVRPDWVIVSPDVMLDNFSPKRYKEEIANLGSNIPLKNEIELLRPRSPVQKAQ

The target of assay [6] is T6, Kar4p L255F fused to the Gal4p DNA-binding domain (S. cerevisiae) (UniProt P25583).
T6 sequence: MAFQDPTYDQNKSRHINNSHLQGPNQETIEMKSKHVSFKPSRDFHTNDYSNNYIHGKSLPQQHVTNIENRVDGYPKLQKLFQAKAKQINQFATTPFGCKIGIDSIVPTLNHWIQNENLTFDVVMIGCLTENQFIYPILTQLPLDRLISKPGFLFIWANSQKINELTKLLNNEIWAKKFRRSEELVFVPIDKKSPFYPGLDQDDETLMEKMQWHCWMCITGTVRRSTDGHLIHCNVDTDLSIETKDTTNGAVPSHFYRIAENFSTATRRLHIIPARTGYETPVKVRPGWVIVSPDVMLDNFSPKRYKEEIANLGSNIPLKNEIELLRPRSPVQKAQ

B1: Ime4p fused to the Gal4p activating domain (protein, UniProt P41833 1-600)
chain: MINDKLVHFLIQNYDDILRAPLSGQLKDVYSLYISGGYDDEMQKLRNDKDEVLQFEQFWNDLQDIIFATPQSIQFDQNLLVADRPEKIVYLDVFSLKILYNKFHAFYYTLKSSSSSCEEKVSSLTTKPEADSEKDQLLGRLLGVLNWDVNVSNQGLPREQLSNRLQNLLREKPSSFQLAKERAKYTTEVIEYIPICSDYSHASLLSTSVYIVNNKIVSLQWSKISACQENHPGLIECIQSKIHFIPNIKPQTDISLGDCSYLDTCHKLNTCRYIHYLQYIPSCLQERADRETASENKRIRSNVSIPFYTLGNCSAHCIKKALPAQWIRCDVRKFDFRVLGKFSVVIADPAWNIHMNLPYGTCNDIELLGLPLHELQDEGIIFLWVTGRAIELGKESLNNWGYNVINEVSWIKTNQLGRTIVTGRTGHWLNHSKEHLLVGLKGNPKWINKHIDVDLIVSMTRETSRKPDELYGIAERLAGTHARKLEIFGRDHNTRPGWFTIGNQLTGNCIYEMDVERKYQEFMKSKTGTSHTGTKKIDKKQPSKLQQQHQQQYWNNMDMGSGKYYAEAKQNPMNQKHTPFESKQQQKQQFQTLNNLYFAQ
On to B1, for which the binding result is reported as “binds” in assay [1]; “binds” in assay [2]; “binds” in assay [3]; “binds” in assay [4]; “no binding” in assay [5]; “binds” in assay [6].
